Here are results for 73 sequences from publication PMC5892938.

The other results are listed elsewhere or left out. At the low end of the ranking the order means little.

The assay has as its target GST-SBP-SLBP (stem-loop binding protein) (UniProt Q14493). The assay can be described thus: targeted RNA Bind-n-Seq.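 Also: DESeq read counts versus GST-SBP nonspecific binding control pulldown.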 The conditions noted are these: RBNS binding buffer: 25 mM Tris pH 7.5, 150 mM KCl, 3 mM MgCl2, 0.1% Tween, 0.5 mg/mL BSA, 1 mM DTT; 27 nM protein, 750 pM RNA pool; temperature not stated; high values mean tight binding.
Consider “GGUCACGUCUCAAUCAACUCAUCGGAGGGGGGGAAAACCCCUUUACCCUCAAACUCAACAGCUCGCAGUCAAG”, for which the binding signal (log2 fold change) is 0.199. As for “GGUCACGUCUCAAUCAACUCAUCGCCCAGGGAAAACCCUGGUAAUCUCAACAGCUCGCAGUCAAG”, the binding signal (log2 fold change) was -0.00718. Under “GGUCACGUCUCAAUCAACUCUCACGAGGGGGGGAAAACCCCUUUACCCUCUAUCUCAACAGCUCGCAGUCAAG” stands 0.217; under “GGUCACGUCUCAAUCAACUCUUUUCCCAGGGAAAUCCCUGGCAAUGUCAACAGCUCGCAGUCAAG”, -0.105. Take “GGUCACGUCUCAAUCAACUCAAUUCCAGGAGUUUCCUCCUGUAAACUCAACAGCUCGCAGUCAAG”: the binding signal (log2 fold change) stood at 0.102. Under “GGUCACGUCUCAAUCAACUCUACUCCCAGGGAAAACCCUGGUAAUCUCAACAGCUCGCAGUCAAG” stands 0.015; under “GGUCACGUCUCAAUCAACUCCUACGAGGGGGGGAAAACCCCUUUACCCUCAUCCUCAACAGCUCGCAGUCAAG”, 0.0918; under “GGUCACGUCUCAAUCAACUCUUUUUCAGGAGUUUGCUCCUGCAUUUUCAACAGCUCGCAGUCAAG”, -0.0711. As for “GGUCACGUCUCAAUCAACUCAGUCUCCAGGGAAACCCCUGGUAAAUUCAACAGCUCGCAGUCAAG”, the figure is 0.0173; as for “GGUCACGUCUCAAUCAACUCAGUCUCCAGGGAAAUCCCUGGCAUUUUCAACAGCUCGCAGUCAAG”, 0.0949; as for “GGUCACGUCUCAAUCAACUCAUUUUCCAGGGAAAGCCCUGGCUAUCUCAACAGCUCGCAGUCAAG”, -0.0239. As for “GGUCACGUCUCAAUCAACUCCAUAGAGGGGGGGAAAACCCCUUUACCCUCCAAUUCAACAGCUCGCAGUCAAG”, the figure is -0.263; as for “GGUCACGUCUCAAUCAACUCCAUCGAGGGGGGGAAAACCCCUUUACCCUCACCUUCAACAGCUCGCAGUCAAG”, 0.27; as for “GGUCACGUCUCAAUCAACUCAACUCCAGGAGUUUACUCCUGCUUAUUCAACAGCUCGCAGUCAAG”, -0.0524.

With “GGUCACGUCUCAAUCAACUCUUCGCCCAGGGAAAACCCUGGUAUAUUCAACAGCUCGCAGUCAAG”, the binding signal (log2 fold change) was -0.263. Under “GGUCACGUCUCAAUCAACUCAUCUCCCAGGGAAAUCCCUGGCAAACUCAACAGCUCGCAGUCAAG” stands 0.129; under “GGUCACGUCUCAAUCAACUCUAUUUCAGGAGUUUACUCCUGUUAUUUCAACAGCUCGCAGUCAAG”, 0.0621; under “GGUCACGUCUCAAUCAACUCAUAAGAGGGGGGGAAAACCCCUUUGCCCUCACAUUCAACAGCUCGCAGUCAAG”, 0.119. Under “GGUCACGUCUCAAUCAACUCUUUUUCAGGAGUUUUCUCCUGUAUUUUCAACAGCUCGCAGUCAAG” stands -0.146; under “GGUCACGUCUCAAUCAACUCAAGUCCAGGAGUUUUCUCCUGCUAAUUCAACAGCUCGCAGUCAAG”, -0.0445; under “GGUCACGUCUCAAUCAACUCAAGUCCAGGAGUUUACUCCUGCAAAUUCAACAGCUCGCAGUCAAG”, 0.0126.

In the case of “GGUCACGUCUCAAUCAACUCAUCGCCAGGAGUUUUCUCCUGUAAUUUCAACAGCUCGCAGUCAAG”, the binding signal (log2 fold change) amounted to 0.00468. As to “GGUCACGUCUCAAUCAACUCACUAGAGGGGGGGAAAACCCCUUUGCCCUCACACUCAACAGCUCGCAGUCAAG”, the binding signal (log2 fold change) worked out at 0.252. As for “GGUCACGUCUCAAUCAACUCUUCUCCAGGAGUUUACUCCUGCUAAUUCAACAGCUCGCAGUCAAG”, the figure is -0.109; as for “GGUCACGUCUCAAUCAACUCUUUUUCCAGGGAAAGCCCUGGCUAUGUCAACAGCUCGCAGUCAAG”, 0.31; as for “GGUCACGUCUCAAUCAACUCUAUUCCCAGGGAAACCCCUGGCAAACUCAACAGCUCGCAGUCAAG”, 0.0456. As for “GGUCACGUCUCAAUCAACUCAGUCCCAGGAGUUUUCUCCUGCAAUUUCAACAGCUCGCAGUCAAG”, the figure is -0.0409; as for “GGUCACGUCUCAAUCAACUCCUAAGAGGGGGGGAAAACCCCUUUACCCUCCCAUUCAACAGCUCGCAGUCAAG”, 0.0891. As for “GGUCACGUCUCAAUCAACUCAGUCCCCAGGGAAAGCCCUGGCUUAUUCAACAGCUCGCAGUCAAG”, the figure is 0.0159. For “GGUCACGUCUCAAUCAACUCAAAAGAGGGGGGGAAAACCCCUUUACCCUCCGUAUCAACAGCUCGCAGUCAAG”, the binding signal (log2 fold change) was determined as 0.155. As for “GGUCACGUCUCAAUCAACUCUUCCGAGGGGGGGAAAACCCCUUUACCCUCUUUAUCAACAGCUCGCAGUCAAG”, the figure is -0.525; as for “GGUCACGUCUCAAUCAACUCUACUCCAGGAGUUUACUCCUGCUUUUUCAACAGCUCGCAGUCAAG”, 0.0187. As for “GGUCACGUCUCAAUCAACUCAUUUUCAGGAGUUUUCUCCUGUAUAUUCAACAGCUCGCAGUCAAG”, the figure is -0.0694; as for “GGUCACGUCUCAAUCAACUCACUCGAGGGGGGGAAAACCCCUUUACCCUCAAUUUCAACAGCUCGCAGUCAAG”, -0.264. Take “GGUCACGUCUCAAUCAACUCCCUAGAGGGGGGGAAAACCCCUUUGCCCUCAUCGUCAACAGCUCGCAGUCAAG”: the binding signal (log2 fold change) came out at 0.292. As for “GGUCACGUCUCAAUCAACUCACACGAGGGGGGGAAAACCCCUUUACCCUCUUCUUCAACAGCUCGCAGUCAAG”, the figure is 0.0647; as for “GGUCACGUCUCAAUCAACUCUUCAGAGGGGGGGAAAACCCCUUUGCCCUCAUAUUCAACAGCUCGCAGUCAAG”, -0.138.

“GGUCACGUCUCAAUCAACUCUACUCCAGGAGUUUUCUCCUGUAAAUUCAACAGCUCGCAGUCAAG”: the binding signal (log2 fold change) is -0.162. Under “GGUCACGUCUCAAUCAACUCCCUAGAGGGGGGGAAAACCCCUUUACCCUCCACAUCAACAGCUCGCAGUCAAG” stands -0.186; under “GGUCACGUCUCAAUCAACUCCCAAGAGGGGGGGAAAACCCCUUUACCCUCACCGUCAACAGCUCGCAGUCAAG”, -0.0128; under “GGUCACGUCUCAAUCAACUCAAUAGAGGGGGGGAAAACCCCUUUACCCUCAAAAUCAACAGCUCGCAGUCAAG”, -0.255. “GGUCACGUCUCAAUCAACUCUUUUCCCAGGGAAAUCCCUGGUAUGUUCAACAGCUCGCAGUCAAG”: the binding signal (log2 fold change) stood at 0.148. As for “GGUCACGUCUCAAUCAACUCUUUCCCCAGGGAAAUCCCUGGCAUAUUCAACAGCUCGCAGUCAAG”, the figure is 0.00216. As to “GGUCACGUCUCAAUCAACUCAACUCCAGGAGUUUCCUCCUGCUUACUCAACAGCUCGCAGUCAAG”, the binding signal (log2 fold change) stood at 0.271. Regarding “GGUCACGUCUCAAUCAACUCAUUCUCAGGAGUUUACUCCUGCUAACUCAACAGCUCGCAGUCAAG”, the binding signal (log2 fold change) is -0.0115. As for “GGUCACGUCUCAAUCAACUCUAAAGAGGGGGGGAAAACCCCUUUACCCUCCGUAUCAACAGCUCGCAGUCAAG”, the figure is -0.192; as for “GGUCACGUCUCAAUCAACUCUUCCUCAGGAGUUUCCUCCUGUUAACUCAACAGCUCGCAGUCAAG”, -0.0571; as for “GGUCACGUCUCAAUCAACUCAUCCUCCAGGGAAAGCCCUGGCUUAUUCAACAGCUCGCAGUCAAG”, 0.233. In the case of “GGUCACGUCUCAAUCAACUCAGAAGAGGGGGGGAAAACCCCUUUGCCCUCCAUAUCAACAGCUCGCAGUCAAG”, the binding signal (log2 fold change) stood at 0.327. As for “GGUCACGUCUCAAUCAACUCAUUCUCAGGAGUUUCCUCCUGUUAACUCAACAGCUCGCAGUCAAG”, the figure is 0.007; as for “GGUCACGUCUCAAUCAACUCUUUUCCCAGGGAAACCCCUGGCAAAUUCAACAGCUCGCAGUCAAG”, 0.0061. As for “GGUCACGUCUCAAUCAACUCUUUUUCAGGAGUUUACUCCUGUAAUUUCAACAGCUCGCAGUCAAG”, the figure is -0.22; as for “GGUCACGUCUCAAUCAACUCAUUCUCAGGAGUUUUCUCCUGCUUUGUCAACAGCUCGCAGUCAAG”, 0.116. Turning to “GGUCACGUCUCAAUCAACUCAAAAGAGGGGGGGAAAACCCCUUUACCCUCCUUAUCAACAGCUCGCAGUCAAG”, the binding signal (log2 fold change) was 0.244.

Regarding “GGUCACGUCUCAAUCAACUCAUUCUCAGGAGUUUACUCCUGUAUACUCAACAGCUCGCAGUCAAG”, the binding signal (log2 fold change) is -0.0344.

As to “GGUCACGUCUCAAUCAACUCUAUCCCAGGAGUUUUCUCCUGCAAUCUCAACAGCUCGCAGUCAAG”, the binding signal (log2 fold change) was -0.0532. As for “GGUCACGUCUCAAUCAACUCUAUGGCCAGGGAAAACCCUGGGAAAUUCAACAGCUCGCAGUCAAG”, the figure is -0.0425; as for “GGUCACGUCUCAAUCAACUCAUUCCCAGGAGUUUACUCCUGUUUAUUCAACAGCUCGCAGUCAAG”, 0.0478; as for “GGUCACGUCUCAAUCAACUCUAUCUCAGGAGUUUCCUCCUGUAAACUCAACAGCUCGCAGUCAAG”, -0.0898. Under “GGUCACGUCUCAAUCAACUCAUUCUCAGGAGUUUGCUCCUGCAUUUUCAACAGCUCGCAGUCAAG” stands -0.0661. Regarding “GGUCACGUCUCAAUCAACUCACAAGAGGGGGGGAAAACCCCUUUACCCUCAUCUUCAACAGCUCGCAGUCAAG”, the binding signal (log2 fold change) is 0.138. Under “GGUCACGUCUCAAUCAACUCUUUUUCCAGGGAAAGCCCUGGCAUUCUCAACAGCUCGCAGUCAAG” stands 0.115; under “GGUCACGUCUCAAUCAACUCAAUUUCAGGAGUUUGCUCCUGUAUACUCAACAGCUCGCAGUCAAG”, 0.0406. Under “GGUCACGUCUCAAUCAACUCUUCCUCAGGAGUUUCCUCCUGCAUUUUCAACAGCUCGCAGUCAAG” stands -0.0345; under “GGUCACGUCUCAAUCAACUCUUAAGAGGGGGGGAAAACCCCUUUGCCCUCACAUUCAACAGCUCGCAGUCAAG”, -0.00592. As for “GGUCACGUCUCAAUCAACUCUACUUCAGGAGUUUUCUCCUGCAUAUUCAACAGCUCGCAGUCAAG”, the figure is -0.00818; as for “GGUCACGUCUCAAUCAACUCCUCUGAGGGGGGGAAAACCCCUUUACCCUCUAAAUCAACAGCUCGCAGUCAAG”, 0.27; as for “GGUCACGUCUCAAUCAACUCACAAGAGGGGGGGAAAACCCCUUUACCCUCAUAUUCAACAGCUCGCAGUCAAG”, -0.145. Take “GGUCACGUCUCAAUCAACUCAUAAGAGGGGGGGAAAACCCCUUUACCCUCCAAUUCAACAGCUCGCAGUCAAG”: the binding signal (log2 fold change) is -0.29. For “GGUCACGUCUCAAUCAACUCUUCUUCCAGGGAAAUCCCUGGUAAUGUCAACAGCUCGCAGUCAAG”, the binding signal (log2 fold change) is 0.129. As for “GGUCACGUCUCAAUCAACUCUUCCUCCAGGGAAAUCCCUGGCUAACUCAACAGCUCGCAGUCAAG”, the figure is -0.0104; as for “GGUCACGUCUCAAUCAACUCAAUCUCCAGGGAAAACCCUGGUAAUCUCAACAGCUCGCAGUCAAG”, 0.134; as for “GGUCACGUCUCAAUCAACUCAUCCCCAGGAGUUUACUCCUGUAUAUUCAACAGCUCGCAGUCAAG”, -0.0743.
